# Measured values taken from the supplement of paper PMC3334620.
# Whole data set: some 33,000 sequences, median “E-score (-0.5 to 0.5)” near -0.01, cut for the highest 2% near 0.26. This is one part of the list.
# Molecular target: Ste12 (UniProt P13574)
# Assay: PBM E-score (8-mer binding enrichment) (E-score (-0.5 to 0.5)); higher = stronger / more preferred TF binding; most listed sequences are background and not binding sites
# Conditions: protein concentration: 200 nM; construct: GST-DNA-binding domain
# How it was run: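 Yeast transcription factors, full-length or as DNA-binding domains, were expressed with a GST tag using PURExpress in vitro transcription/translation. At about 100-200 nM they were applied to universal all-10-mer Agilent arrays, double-stranded by primer extension on fresh or once-stripped slides. Fluorescent anti-GST detected bound protein, and masliner normalised the scans. E-scores for ungapped eight-base words, pooled with reverse complements, came from the Universal PBM Analysis Suite.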
row,Sequence,PBM E-score
1,AGCAGCAT,-0.203
2,CGAGCTGA,0.0044
3,AGGTGACC,-0.111
4,GGTGTTCA,-0.0821
5,CCCACACC,0.0495
6,ACTACTCC,0.0344
7,GATGTATA,0.0546
8,TCCTGGAA,-0.0685
9,CACGGCGA,0.00223
10,CCTTCACA,0.146
11,AACTTCTG,0.0938
12,CCGCGTAC,-0.07
13,ACCGACGC,-0.0512
14,CCAAGGGA,-0.18
15,CTGACGGA,-0.0925
16,ACACCAAG,-0.103
17,AATCGAGC,-0.123
18,GGACACTA,-0.167
19,AGTATCGA,0.111
20,ACACCCAA,0.0218
21,AGGCATTG,-0.0128
22,CGACAGCG,-0.0915

row,Sequence,PBM E-score
1,TACGAATA,0.0491
2,GCTAAGGA,-0.048
3,ACCCGCCG,0.137
4,ACAGGACA,-0.00224
5,CGCACTGA,-0.243
6,AAGTTGCT,-0.134
7,CTAGCGTA,-0.281
8,AGACTAGC,-0.224
9,GTACCTAC,-0.325
10,ACCTGTTA,-0.0567
11,CTCACCGA,-0.00381
12,ACTTTTGC,0.109
13,CGCTCCCA,-0.00923
14,CCTAACTA,0.0845
15,ATAGCCGG,-0.111
16,CCTCCATA,-0.0991
17,CTACACAA,-0.0125
18,GGCACCCA,-0.101
19,CCCGTAGG,-0.172
20,AAAGCGTT,0.0336
21,GACAGGGA,-0.138
22,CGAGTTAG,0.0577

row,Sequence,PBM E-score
1,AAGGCTAA,-0.0258
2,GACTGCCC,-0.0715
3,GATGGAGC,-0.176
4,GCAGTGGA,-0.0364
5,ACACTTAG,0.0589
6,AGCGGGAC,-0.133
7,GATTACGA,0.149
8,GAAAGCAC,0.06
9,ATGAATCG,0.072
10,AACCGCCC,0.00313
11,CACAATGC,0.00421
12,GCGTCGTA,0.057
13,CCTGCAGA,0.0997
14,GCATAACC,-0.0119
15,ATACCCGG,0.104
16,ATGGAAAC,0.263
17,CACTGGGG,-0.175
18,CAGACAAA,0.212
19,GTTTGTAA,0.199
20,CCCAGATC,-0.14
21,ACATTCTG,-0.0747
22,CAAGAGTC,-0.28

row,Sequence,PBM E-score
1,CTGGCCTA,-0.127
2,GAGCAACA,-0.138
3,AGTTACTA,0.00299
4,CGATCAAG,-0.15
5,GACTAGGA,-0.047
6,CTATGACC,-0.14
7,TCGGACCA,-0.137
8,AACTATCG,-0.0459
9,GCGAGATA,0.175
10,ACGAGAGC,-0.137
11,AGGGCTAA,-0.0946
12,ACTAGCTA,-0.0308
13,CACGGCTA,-0.188
14,CGCTTCAA,0.038
15,CCTTTCGA,0.112
16,GCGCTTTA,-0.206
17,ACTACACG,0.0288
18,ATCTTTTG,0.123
19,AGTTCTTC,0.14
20,AATAGTAA,0.156
21,AGCGGGGG,-0.26
22,CAGGCGAA,-0.139

row,Sequence,PBM E-score
1,TACTCTAA,0.0561
2,CATTCGTA,-0.0838
3,AGGGGTCA,-0.0707
4,ACATCATG,0.0856
5,GCTGACAC,0.0351
6,AAGTTGCC,-0.15
7,ATGGCCCG,-0.0237
8,AAGGCTCA,-0.132
9,AACGCGCT,0.0874
10,CCACTGGC,-0.0254
11,GCAAATTA,0.2
12,CGAAGACA,-0.0403
13,AGGCACTG,-0.147
14,CCTGCAAG,-0.168
15,TGACGGAA,0.0905
16,AGAGCCCT,-0.118
17,ACTGGGAG,-0.171
18,CGGCGAGC,-0.107
19,GCGATAAA,0.0353
20,CCATACGG,-0.142
21,TTAGGCAA,-0.127
22,ACAACACG,-0.0902
